Laboratory results reported in ChEMBL document CHEMBL4888484, “Replenishing the malaria drug discovery pipeline: Screening and hit evaluation of the MMV Hit Generation Library 1 (HGL1) against asexual blood stage Plasmodium falciparum ,using a nano luciferase reporter read-out” (2022).
In all, about 150,000 compounds went through this assay and about 540 (0.36%) showed an effect of 50% or more. This is one part of the list.

test system: Plasmodium falciparum; assay: Primary screen in NF54 nanoGlo assay, in single point, at 2uM, 72h; a lower Z score goes with more inhibition; type: functional, Erythrocyte; details: timepoint 72 hour

| Structure (SMILES) | % Inhibition [%] | Z score |
| --- | --- | --- |
| CCCO[C@H]1CCCN(Cc2cc(C(=O)O)co2)CC1 | 3 | -0.52 |
| CCN1CC2(CCN(Cc3ccc(OCC(N)=O)c(Cl)c3)CC2)OC1=O | -1 | 0.16 |
| COc1ccc(N(C(=O)C2CC2C)C2CCS(=O)(=O)C2)cc1 (stereo unspecified) | -11 | 1.04 |
| O=C(Nc1ccc2c(c1)NCCC2)c1ccoc1 | -9 | 1.37 |
| CN(C)S(=O)(=O)N1CCOC[C@H]1c1ncnn1-c1ccccc1 | -2 | 0.3 |
| Cc1cc(C)c(CN2CCC(CCC(=O)N3CCOCC3)CC2)cc1C | -8 | 0.7 |
| Cc1cccc(N2CCN(S(=O)(=O)c3ccc4c(c3)C(C)(C)C(=O)N4C)C[C@@H]2C)c1 | -13 | 1.7 |
| CCn1nc(NC(=O)c2ccc(CN3C[C@H]4CC[C@H]3C4)cc2)cc1C | -2 | 0.32 |
| Cc1ccccc1NC(=O)c1cccc(S(=O)(=O)NCC2(C)COC2)c1 | 9 | -1.6 |
| CC(C)c1nnc2n1[C@](C)(C(=O)NCc1cccnc1)COC2 | -2 | 0.31 |
| O=C(CC1CCCC1)N1CC(OCC(F)(F)F)C1 | 13 | -1.96 |
| O=C(NC1CC1)c1cc2n(n1)CCCN(Cc1ccc(F)cc1)C2=O | -6 | 0.73 |
| O=C(CCN1C(=O)CCC1=O)NC1(Cc2ccc(Br)cc2)CCCCC1 | -1 | 0.21 |
| O=C(Nc1ccccc1Cl)N1Cc2cccn2-c2ccccc21 | -2 | 0.25 |
| CN(C)c1cccc(C(=O)Nc2cc(-c3ccccn3)no2)c1 | -15 | 2.36 |
| CN(CC1(c2ccc(Br)cc2)CC1)C(=O)Cc1ccn[nH]1 | 4 | -0.41 |
| COC(=O)N[C@@H](C)C(=O)N1CCC(c2nccn2CC2CC2)CC1 | -5 | 1.03 |
| Cc1ocnc1C(=O)NCC1(C)COC1 | 17 | -1.95 |
| O=S(=O)(c1ccc2c(c1)OCCO2)c1nc(-c2ccccc2Cl)oc1NCc1cccnc1 | -3 | 0.33 |
| O=C(NC[C@H]1CCCO1)c1csc(COc2cc(Cl)ccc2Cl)n1 | -11 | 1.48 |
| CCCN(CCC)C(=O)c1coc(CN2CCN(C[C@H](O)CN3CCOCC3)CC2)n1 | -12 | 1.66 |

| Structure (SMILES) | % Inhibition [%] | Z score |
| --- | --- | --- |
| O=C(NCCOCC(F)(F)F)[C@H]1CC[C@@H](Nc2ccccn2)CC1 | 0 | 0.06 |
| O=C(NCCc1c[nH]c2ccccc12)[C@@H]1CNC[C@H](C(=O)Nc2ccc(F)cc2)C1 | -23 | 2.7 |
| CCS(=O)(=O)N1CCc2nc(N3CCC(C)CC3)nc(Oc3ccc(F)cc3)c2C1 | -3 | 0.51 |
| CCN1CCN(c2nccc(-c3cnc4nc(-c5ccncc5)nn4c3C)n2)CC1 | -8 | 1.17 |
| CC(NC1CCNC1=O)c1ccc(S(C)(=O)=O)c(F)c1 (stereo unspecified) | -3 | 0.27 |
| CC[C@@H]1C(=O)N(c2nc(-c3ccc(OC)cc3)cs2)N=C1C | -9 | 1.61 |
| CN(C)C(=O)[C@H](OC(=O)c1ccc2cn[nH]c2c1)c1ccccc1 | -14 | 2.71 |
| CCn1nccc1C(=O)N1CCC2(CC1)C[C@@H]2NC(=O)c1ccccc1 | -1 | 0.06 |
| Cc1nn(C)c(C)c1CCCNC(=O)NCC(=O)N1CCCC1 | -7 | 0.96 |
| Cc1cnc(CNC(=O)c2ccc(C)s2)o1 | -5 | 0.92 |
| Cc1ccc(CCC2(O)CCCCC2)cn1 | -11 | 1.48 |
| c1ccc2nc(NCCN3CCOCC3)cnc2c1 | -9 | 1.05 |
| COc1ccc(NC(=O)[C@@H](c2cc(OC)c(OC)c(OC)c2)N(Cc2ccccc2C)C(=O)Cn2nnc3ccccc32)cc1 | 1 | -0.19 |
| CN1CCN(C(=O)c2ccnnc2)C[C@H]1c1ccccc1 | -18 | 2.78 |
| COc1ccc(NC(=O)N2CCc3c([nH]c4ccc(Cl)cc34)[C@H]2c2ccc(C)cc2)cc1OC | -7 | 1 |
| CC(C)OCCCNC(=O)[C@]1(C)Cn2cnc(C(=O)Nc3cccc(Cl)c3)c2C(=O)N1C1CC1 | -8 | 1.21 |
| O=c1[nH]nc(CCNc2nc3c(c(=O)[nH]2)Cc2ccccc2OC3)[nH]1 | 3 | -0.52 |
| Cc1c(Cl)cccc1NC(=O)Cn1nc2c(N(C)C)nc3ccccc3n2c1=O | -12 | 1.74 |
| Cc1c(NC(=O)Cc2ccc(-c3ccccc3)cc2)c(=O)n(-c2ccccc2)n1C | -6 | 0.98 |
| CC(C)[C@H]1N(C(=O)CN2CCCC2)CCN1S(=O)(=O)c1ccccc1 | 1 | -0.17 |
| CN1CCC(N(C)C(=O)c2csc(NC(=O)c3cccc(Cl)c3)n2)CC1 | 1 | -0.13 |

| Structure (SMILES) | % Inhibition [%] | Z score |
| --- | --- | --- |
| COc1ccc(NC(=O)C2CCN(S(=O)(=O)c3cc(-c4noc(C)n4)ccc3Cl)CC2)cc1 | -15 | 1.95 |
| CCN1CC2(CCN(C(=O)Cc3cccnc3)CC2)CC1=O | -8 | 1.31 |
| O=C(NCCn1ccnc1C1CC1)c1ccoc1 | -4 | 0.76 |
| COc1cc2ccccc2cc1C(=O)Nc1ccc(-c2nc3c(ccc4ccccc43)o2)cc1 | -11 | 1.25 |
| O[C@H](COc1ccc(-c2ccccc2)cc1)CN1CCn2ccnc2C1 | -5 | 1.09 |
| CC[C@H](C)OCC(=O)Nc1cc(Br)ccc1NC(C)=O | -11 | 1.43 |
| CC1(C)CCc2nnc([C@H]3CCS(=O)(=O)C3)n2C1 | -18 | 3.65 |
| Cc1ccccc1OCC(=O)Nc1cnc2cc(C(F)(F)F)nn2c1 | 14 | -1.82 |
| O=C(c1ccccc1)c1ccc(O)c(CN2CCCN(c3ccc(C(F)(F)F)cn3)CC2)c1O | 84 | -8.75 |
| COc1cc(-c2ccno2)ccc1S(=O)(=O)Nc1ccc(F)cc1 | 1 | -0.28 |
| CC1(C)C(=O)NC(=O)N1Cc1noc(-c2cnsn2)n1 | -38 | 4.46 |
| Cc1cnc(CNC(=O)C(C)(C)[C@H](NC(=O)OC(C)(C)C)c2ccccc2)s1 | 1 | -0.1 |
| Cc1nc(N2CCC(Cn3nc4c(cc3=O)CCC4)CC2)c2cnn(C)c2n1 | -10 | 2.06 |
| CCOc1ccc(Cl)cc1CNCCN(C)C | -12 | 2.43 |
| C[C@H]1COCCN1Cc1cn2ccccc2c1C#N | -3 | 0.36 |
| Cc1nn(CC(C)C)c(C)c1S(=O)(=O)NC1CC(C)OC(C)C1 (stereo unspecified) | -12 | 1.09 |
| CO[C@@H](CNC(=O)Cn1nnnc1N)c1cccs1 | -9 | 0.91 |
| CN(C)c1nnc(CNS(=O)(=O)c2ccc(Cl)s2)[nH]1 | -16 | 2.18 |
| CC(C)CCc1nc(N2CCCN(C(=O)c3cccc(Cl)c3)CC2)c2cnn(-c3cccc(Cl)c3)c2n1 | 17 | -2.37 |
| CC(C)(CNS(=O)(=O)c1ccc(Cl)s1)c1ccsc1 | -5 | 1.02 |
| O=C1CCCCCN1C(=O)c1ccccc1 | 2 | -0.24 |

| Structure (SMILES) | % Inhibition [%] | Z score |
| --- | --- | --- |
| OC[C@@]12CCN(Cc3cc(Br)ccc3F)C[C@@H]1CN(Cc1ccccc1)C2 | -15 | 1.72 |
| CC[C@]1(N2CCN(S(=O)(=O)c3cccc(C#N)c3)CC2)CCN(C(=O)C(C)C)C1 | -10 | 1.24 |
| CC(C)(C)CC(C)(C)NC[C@H](O)COCc1ccccc1 | -1 | 0.2 |
| CO[C@@]12CC[C@@H](O)C[C@@H]1N(C(=O)c1c[nH]c3ccc(C)cc3c1=O)CC2 | -11 | 1.28 |
| Cc1csc(CN2CC3(CCOCC3)[C@@H]2C2CC2)n1 | 3 | -0.27 |
| O=C(NCCCCNC(=O)c1cncc(O)c1)c1cncc(O)c1 | 8 | -1.48 |
| Cc1cnccc1CN(C)C(=O)c1cncn1C | -1 | 0.17 |
| COc1ccc(-n2nc3nc(NCCN4CCOCC4)nc(-c4cccc(OC)c4)c3c2N)cc1 | -8 | 1.07 |
| COc1ccc(S(=O)(=O)N2CCN3C(=O)N(Cc4ccc(C)cc4)C[C@H]3C2)cc1 | -3 | 0.35 |
| CN1CCC(NC(=O)N2CC(C)(C)C2C2CC2)C1=O (stereo unspecified) | -8 | 1.29 |
| Cc1ccc(S(=O)(=O)Nc2ccc3nc(-c4cccc(Cl)c4)oc3c2)cc1 | 9 | -1.07 |
| Cn1cncc1[C@H]1NC(=O)CC[C@@H]1NC(=O)N1CCC[C@@H]1C(F)F | -1 | 0.07 |
| CN(c1nc2ccc(F)cc2o1)C1CC(O)C1 (stereo unspecified) | -5 | 0.88 |
| CC(CCc1cccc(F)c1)C(=O)N1CCOC(CC(=O)O)C1 (stereo unspecified) | 3 | -0.39 |
| CCCc1nnsc1-c1nc(-c2cccnn2)no1 | -11 | 1.45 |
| COc1ccc(C(=O)N2C[C@@H]3CCC[C@H](C2)C(=O)N3)cn1 | -13 | 2.53 |
| COc1nc2c(cc1C(=O)N1CCO[C@H](c3ccccc3)C1)C(=O)N(C1CCCC1)C2 | 6 | -0.86 |
| CN1C(=O)[C@H]2CN(C(=O)Nc3ccccc3)C[C@H]2C1=O | 0 | 0.03 |
| Cc1cc(O)cc(=O)n1C[C@H](O)c1cccc(O)c1 | -6 | 1.11 |
| CCC(=O)N1CCCC(C(=O)N2CC3CCCC3C2)C1 (stereo unspecified) | -2 | 0.26 |
